The supplement of paper PMC3334620
Over roughly 33,000 sequences, “E-score (-0.5 to 0.5)” has its median near -0.04; the highest 2% begin near 0.36. This is one part of the list.

target: T1, Hmlalpha2 (UniProt P0CY09); assay: PBM E-score (8-mer binding enrichment) (E-score (-0.5 to 0.5)); higher = stronger / more preferred TF binding; most listed sequences are background and not binding sites; details: protein concentration: 200 nM; construct: GST-full length
T1 sequence: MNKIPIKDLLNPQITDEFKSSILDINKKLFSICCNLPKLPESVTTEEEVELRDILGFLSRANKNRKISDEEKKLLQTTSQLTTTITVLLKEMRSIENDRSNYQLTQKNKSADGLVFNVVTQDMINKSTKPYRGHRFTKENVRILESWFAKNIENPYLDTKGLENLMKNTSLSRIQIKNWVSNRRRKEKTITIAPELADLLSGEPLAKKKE
Method: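 Universal 'all 10-mer' protein binding microarrays (Agilent AMADID 015681) probed with GST-tagged S. cerevisiae TFs (full-length or DBD) made by in vitro transcription/translation (PURExpress), about 100-200 nM. Bound TF was detected with fluorescent anti-GST. Each ungapped 8-mer (which stands for itself and its reverse complement) is scored by the PBM enrichment score (E-score), a modified Wilcoxon-Mann-Whitney statistic from -0.5 to +0.5, computed with the Universal PBM Analysis Suite. Scale: above 0.35 generally sequence-specific binding.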

Sequence	PBM E-score
CGTTCTAG	0.0456
ACTAGTAC	0.103
CTACAGCA	0.0682
CAATGACA	0.199
GAGACCAA	-0.0901
AATTAAGA	0.0633
GCCTTTTA	0.0441
ACTAAAAA	0.0631
GATCTTCA	-0.0644
CAGAAATG	0.0916
GGGTGAGA	-0.33
CGGTTCAG	-0.355
AAGGCTTC	-0.116
CTCCCGAC	-0.243
GCGCAGAC	-0.134
CCTTTCAA	-0.0729
CCAGAAGA	-0.163
ACGCGATG	0.252
CGACTCTA	-0.187
ATGATAGA	-0.00252
CCTACAAG	0.0596
GAGAGATA	-0.0891
ACCAAACA	0.278
CACCACAG	-0.0337
CCCTGACC	0.00293

Sequence	PBM E-score
ACAGCCCC	-0.153
AGGATCAC	-0.0278
CCCTCAAG	-0.264
CTCGGTGA	-0.194
CTGACGTA	0.0475
CCATCAGA	-0.289
ACCTCAAC	0.0338
CAAAGAAC	0.131
GTATAGAA	0.0731
ATGAACGG	-0.0321
AGTGATCG	-0.0738
CTAGCGTC	-0.191
ACTGTATA	0.0991
GAAAGGCA	-0.0479
CAACCTAA	0.144
GGAGTGGA	-0.162
CATGAAAC	0.0721
ATCTGTAC	0.167
ACGGCGAA	0.11
TACGTCCA	-0.0183
GTCGACGA	0.0877
CCCTGGTA	-0.144
ATACCATA	0.085
TGGACGAA	0.0765
ACGCCCGT	0.00563

Sequence	PBM E-score
CGTTGAGC	0.0973
AGCTATGG	-0.305
CGACACCG	-0.127
CATTAAGG	0.0313
AAATAACT	0.296
CTGGTGCC	-0.0672
CGGACTTC	-0.221
TAAAATAA	0.135
GCTCGACC	-0.0938
ACAGTAAT	0.182
GGACAGTA	0.0315
CTGCTTTA	0.0867
CACCTGAA	0.0464
CACCTATC	-0.0688
TCGGTTCA	-0.0617
CTACCGGA	-0.301
ATTCTGCG	-0.0308
GATGCTCA	-0.178
AATCTGGC	-0.053
AACGAGCG	0.124
AAGTCGCG	0.111
GGCCTGAA	-0.248
CAATCAAC	0.268
ACTTGTCG	-0.125
GGAAACCA	-0.239

Sequence	PBM E-score
AAATGTAA	0.394
AGTTTCTC	-0.0579
GAAGGACA	0.188
ACAGCGTA	0.096
ACTCTACG	0.0737
AGTGACAG	-0.0463
GATCAGAA	-0.278
ATACCCCG	-0.223
AAGGGCAA	-0.207
CATTCAGC	-0.0801
CATGTCCA	0.206
CTACCCAA	-0.134
GTCGCGCA	-0.0287
CTACAAAG	0.156
CAGCTATG	-0.0447
CATGGACA	0.186
AACAGGCG	-0.0316
GCGTGGCA	-0.25
CAGTGTTA	0.212
ATAATGTA	0.273
ACCCGACC	-0.145
GATCGACC	-0.186
CAGTCATA	-0.177
TAGGGCAA	-0.0956
CCGCTTGA	-0.111

Sequence	PBM E-score
GCCCTCCC	-0.328
AGCGATAT	0.0863
CAAAATAC	0.266
CCAATTGA	-0.0994
GTTATTCA	0.296
ATGCACTA	0.131
GACCCAAA	-0.148
GGCAAGAC	-0.237
CGCCACCC	-0.0656
TAAGTGAA	0.0646
ATCACCTG	-0.0735
ACTCTGCA	0.00961
CAGATCGG	-0.0892
GCGAGCCA	-0.181
CGTACAGC	0.0305
ATTATTGG	-0.0194
CCTAGATC	-0.174
GCTAAAGC	0.00412
ATGGACAT	0.168
GTAGTGTA	0.279
CCTCTTTA	-0.104
CCCGTAAG	0.0106
ACCATTTC	-0.0551
AACCCATC	-0.0706
CAGCAACC	-0.15

Sequence	PBM E-score
TACTATAA	0.171
CAGGCGCG	-0.102
CCGCTCCG	-0.161
ACTCGGAG	-0.158
ACCCATAT	-0.0262
GTTTACGA	0.282
AACGATGA	-0.0827
CGAGAGCG	-0.141
AACGCTTG	0.0808
TATCAAGA	0.101
ACCTGATC	-0.171
ACAGAACC	-0.083
AAACCCTC	-0.0233
TGTATAAA	0.342
GCACGGTA	-0.0709
CTGACTCC	-0.311
ACGAGAAC	0.118
CTCTTAAC	0.2
ACATTTAA	0.301
ATGTACGC	0.316
ACGATATG	0.0821
GCCCGCAC	-0.145
ATTCCCAC	-0.125
GCAATCAC	-0.049
AATGAGGC	0.0163

Sequence	PBM E-score
TAGGCAAA	-0.142
AAAGGCGG	-0.151
GCACTTCC	-0.245
GAACAGGC	-0.0405
CCTCCGAA	-0.251
CTGATTGA	-0.0342
GCCCGGAC	-0.23
AAACCACT	-0.0785
AATAGCGA	0.231
ACTCGCTA	0.0329
AATACCTG	-0.0316
AATAGGTC	0.0472
ACCGATTA	0.123
CGTCACAG	-0.204
ATAAGCGA	0.102
AGTGTGAT	0.0862
ACGCACAC	0.224
CGGGGAGC	-0.251
CGCACGAC	0.0246
ATTGCACA	0.134
GAGAAGTA	-0.0622
AACCGTTC	-0.0917
